Structures can show the parent of a compound that is named as a salt. Some of these results come from one statement about several compounds together. At least one compound was matched to its structure with a doubt left.
Each molecule was assayed on PDE4 (assay: In vitro determination of PDE4 inhibitory activity in the cell free assay (cAMP disappearance, U937 cell lysate supernatant)). Settings: U937 human monocytic cell lysate supernatant, read-out: PDE4 inhibition (IC50, 50% inhibition of cAMP disappearance).
Type: biochemical
With N#Cc1ccc2c(c1)C(=O)N(CC(=O)O[C@@H](Cc1c(Cl)c[n+]([O-])cc1Cl)c1ccc(OC(F)F)c(OCC3CC3)c1)C2=O [Compound 255] the IC50 was under 0.1 nM.
O=C(CN1C(=O)c2ccccc2C1=O)O[C@H](Cc1c(Cl)c[n+]([O-])cc1Cl)c1ccc(OC(F)F)c(OCC2CC2)c1 [Compound 29] showed an IC50 of 0.1 to 1 nM.
With N#Cc1cn(CC(=O)O[C@@H](Cc2c(Cl)c[n+]([O-])cc2Cl)c2ccc(OC(F)F)c(OCC3CC3)c2)c2ccccc12 [Compound 49] the IC50 was 0.1 to 1 nM.
O=C(CN1C(=O)c2cccc([N+](=O)[O-])c2C1=O)O[C@@H](Cc1c(Cl)c[n+]([O-])cc1Cl)c1ccc(OC(F)F)c(OCC2CC2)c1 [Compound 11, (S)-3,5-dichloro-4-(2-(3-(cyclopropylmethoxy)-4-(difluoromethoxy)phenyl)-2-(2-(4-nitro-1,3-dioxoisoindolin-2-yl)acetoxy)-ethyl)pyridine 1-oxide] showed an IC50 of 0.1 to 1 nM.
Work on CS(=O)(=O)N(CCN1CCOCC1)c1ccc2c(ccn2CC(=O)O[C@@H](Cc2c(Cl)c[n+]([O-])cc2Cl)c2ccc(OC(F)F)c(OCC3CC3)c2)c1 [Compound 230, (S)-3,5-dichloro-4-(2-(3-(cyclopropylmethoxy)-4-(difluoromethoxy)phenyl)-2-(2-(5-(N-(2-morpholinoethyl)methylsulfonamido)-1H-indol-1-yl)acetoxy)ethyl)pyridine 1-oxide hydrochloride] yielded an IC50 of under 0.1 nM.
For O=C(CN1C(=O)c2ccc([N+](=O)[O-])cc2C1=O)O[C@@H](Cc1c(Cl)c[n+]([O-])cc1Cl)c1ccc(OC(F)F)c(OCC2CC2)c1 [Compound 16], the IC50 was under 0.1 nM.
Molecule O=C(Cn1ccc2cccnc21)O[C@@H](Cc1c(Cl)c[n+]([O-])cc1Cl)c1ccc(OC(F)F)c(OCC2CC2)c1 [Compound 60] has an IC50 of 0.1 to 1 nM.
With CS(=O)(=O)N(CCN1CCOCC1)c1cccc2c1ccn2CC(=O)O[C@@H](Cc1c(Cl)c[n+]([O-])cc1Cl)c1ccc(OC(F)F)c(OCC2CC2)c1 [Compound 233, (S)-3,5-dichloro-4-(2-(3-(cyclopropylmethoxy)-4-(difluoromethoxy)phenyl)-2-(2-(4-(N-(2-morpholinoethyl)methylsulfonamido)-1H-indol-1-yl)acetoxy)ethyl)pyridine 1-oxide] the IC50 was under 0.1 nM.
O=C(Cn1cnc2ccccc21)O[C@@H](Cc1c(Cl)c[n+]([O-])cc1Cl)c1ccc(OC(F)F)c(OCC2CC2)c1 [Compound 22] showed an IC50 of 0.1 to 1 nM.
For Cc1cccc(CN(c2ccc3c(c2)C(=O)N(CC(=O)O[C@@H](Cc2c(Cl)c[n+]([O-])cc2Cl)c2ccc(OC(F)F)c(OCC4CC4)c2)C3=O)S(C)(=O)=O)n1 [Compound 197], the IC50 was under 0.1 nM.
For CS(=O)(=O)Nc1cccc2c1ccn2CC(=O)O[C@@H](Cc1c(Cl)c[n+]([O-])cc1Cl)c1ccc(OC(F)F)c(OCC2CC2)c1 [Compound 84, (S)-3,5-dichloro-4-(2-(3-(cyclopropylmethoxy)-4-(difluoromethoxy)phenyl)-2-(2-(4-(methylsulfonamido)-1H-indol-1-yl)acetoxy)-ethyl)pyridine 1-oxide], the IC50 was under 0.1 nM.
Molecule O=C(CN1C(=O)C(=O)c2cccc(F)c21)O[C@@H](Cc1c(Cl)c[n+]([O-])cc1Cl)c1ccc(OC(F)F)c(OCC2CC2)c1 [Compound 58] has an IC50 of 0.1 to 1 nM.
CC(=O)N1CCN(CCN(c2ccc3c(c2)C(=O)N(CC(=O)O[C@@H](Cc2c(Cl)c[n+]([O-])cc2Cl)c2ccc(OC(F)F)c(OCC4CC4)c2)C3=O)S(C)(=O)=O)CC1 [Compound 214] was tested, and the IC50 was under 0.1 nM.
Molecule Cc1cccnc1CN(c1ccc2c(c1)C(=O)N(CC(=O)O[C@@H](Cc1c(Cl)c[n+]([O-])cc1Cl)c1ccc(OC(F)F)c(OCC3CC3)c1)C2=O)S(C)(=O)=O [Compound 198] has an IC50 of under 0.1 nM.
In the case of O=C(Cn1ccc2cc(O)ccc21)O[C@@H](Cc1c(Cl)c[n+]([O-])cc1Cl)c1ccc(OC(F)F)c(OCC2CC2)c1 [Compound 42, (S)-3,5-dichloro-4-(2-(3-(cyclopropylmethoxy)-4-(difluoromethoxy)phenyl)-2-(2-(5-hydroxy-1H-indol-1-yl)acetoxy)ethyl)pyridine 1-oxide], the IC50 is reported as 0.1 to 1 nM.
In the case of O=C(Cn1ccc2ccc(C(F)(F)F)cc21)O[C@@H](Cc1c(Cl)c[n+]([O-])cc1Cl)c1ccc(OC(F)F)c(OCC2CC2)c1 [Compound 48, (S)-3,5-dichloro-4-(2-(3-(cyclopropylmethoxy)-4-(difluoromethoxy)phenyl)-2-(2-(6-(trifluoromethyl)-1H-indol-1-yl)acetoxy)ethyl)pyridine 1-oxide], the IC50 is reported as 0.1 to 1 nM.
For COCC(=O)Nc1cccc2c1C(=O)N(CC(=O)O[C@@H](Cc1c(Cl)c[n+]([O-])cc1Cl)c1ccc(OC(F)F)c(OCC3CC3)c1)C2=O [Compound 173, (S)-3,5-dichloro-4-(2-(3-(cyclopropylmethoxy)-4-(difluoromethoxy)phenyl)-2-(2-(4-(2-methoxyacetamido)-1,3-dioxoisoindolin-2-yl)acetoxy)ethyl)pyridine 1-oxide], the IC50 was 0.1 to 1 nM.
Molecule COc1cc2c(cc1NS(C)(=O)=O)C(=O)N(CC(=O)O[C@@H](Cc1c(Cl)c[n+]([O-])cc1Cl)c1ccc(OC(F)F)c(OCC3CC3)c1)C2=O [Compound 126, (S)-3,5-dichloro-4-(2-(3-(cyclopropylmethoxy)-4-(difluoromethoxy)phenyl)-2-(2-(5-methoxy-6-(methylsulfonamido)-1,3-dioxoisoindolin-2-yl)acetoxy)ethyl)pyridine 1-oxide] has an IC50 of 0.1 to 1 nM.
COCCNCCN(c1ccc2c(c1)C(=O)N(CC(=O)O[C@@H](Cc1c(Cl)c[n+]([O-])cc1Cl)c1ccc(OC(F)F)c(OCC3CC3)c1)C2=O)S(C)(=O)=O [Compound 227, (S)-3,5-dichloro-4-(2-(3-(cyclopropylmethoxy)-4-(difluoromethoxy)phenyl)-2-(2-(5-(N-(2-(2-methoxyethylamino)ethyl)methylsulfonamido)-1,3-dioxoisoindolin-2-yl)acetoxy)ethyl)pyridine 1-oxide] showed an IC50 of under 0.1 nM.
With CS(=O)(=O)N(CCN1CCOCC1)c1ccc2c(c1)oc(=O)n2CC(=O)O[C@@H](Cc1c(Cl)c[n+]([O-])cc1Cl)c1ccc(OC(F)F)c(OCC2CC2)c1 [Compound 236, (S)-3,5-dichloro-4-(2-(3-(cyclopropylmethoxy)-4-(difluoromethoxy)phenyl)-2-(2-(6-(N-(2-morpholinoethyl)methylsulfonamido)-2-oxobenzo[d]oxazol-3(2H)-yl)acetoxy)ethyl)pyridine 1-oxide] the IC50 was under 0.1 nM.
CS(=O)(=O)N(CCN1CCOCC1)c1ccc2c(c1)C(=O)N(CC(=O)O[C@@H](Cc1c(Cl)c[n+]([O-])cc1Cl)c1ccc(OC(F)F)c(OCC3CC3)c1)C2=O [Compound 182, (S)-3,5-dichloro-4-(2-(3-(cyclopropylmethoxy)-4-(difluoromethoxy)phenyl)-2-(2-(5-(N-(2-morpholinoethyl)methylsulfonamido)-1,3-dioxoisoindolin-2-yl)acetoxy)ethyl)pyridine 1-oxide 2,2,2 trifluoroacetic acid salt] showed an IC50 of 0.1 to 1 nM.
With CS(=O)(=O)N(Cc1ccc2ccccc2n1)c1ccc2c(c1)C(=O)N(CC(=O)O[C@@H](Cc1c(Cl)c[n+]([O-])cc1Cl)c1ccc(OC(F)F)c(OCC3CC3)c1)C2=O [Compound 195] the IC50 was 0.1 to 1 nM.
Work on COc1cc2ccn(CC(=O)O[C@@H](Cc3c(Cl)c[n+]([O-])cc3Cl)c3ccc(OC(F)F)c(OCC4CC4)c3)c2cc1OC [Compound 54] yielded an IC50 of 0.1 to 1 nM.

Reference: patent US9024027B2, “Derivatives of 1-phenyl-2-pyridinyl alkyl alcohols as phosphodiesterase inhibitors” (Chiesi Farmaceutici S.p.A., priority 2011, dated 2015)
